# Results published in article PMC12136788.
# The other results are listed elsewhere or left out.
# T1: UNK ZnF1-3 (human, UniProt Q9C0B0 31-174)
# T1 sequence: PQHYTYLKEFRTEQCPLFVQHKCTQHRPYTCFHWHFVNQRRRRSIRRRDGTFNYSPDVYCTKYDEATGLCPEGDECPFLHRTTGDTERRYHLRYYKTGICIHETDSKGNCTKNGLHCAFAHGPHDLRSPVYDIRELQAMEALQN
# B1: chr8:86465610:86465611:+_ENSMUSG00000013033_ENSMUST00000141158|mus_mus|motif|central (ssRNA)
# RNA: GGGAGUUCUACAGUCCGACGAUCUUGAGAAUGAGAGGAACACAGAGACAGCAAAAAAGGACACAACGGAAAGUUGAAUAGCGGGGAAAACUCAAAAGAAAAAGACCUAGAGAAAAAGAAUGAGCAAGAUUCAGGAGCAAAUGACAACAGAGGAUUGAGCAUCA
# B2: chr4:48207216:48207217:-_ENSMUSG00000028343_ENSMUST00000030028|mus_hu|FALSE|FALSE (ssRNA)
# RNA: GGGAGUUCUACAGUCCGACGAUCCUAGUAGUGCAAGUUAAUGGUAAGUUUCUGGCAAUGUCACCUUUCAUUUGAUUUAUAAAACUUUUACAGGACAGAUUUAAAGUGGAGAUAGGCCUCUGAUUUUUAUUUUUAAAUCCUAGCCAACAGAGGAUUGAGCAUCA
# B3: 118675932_118681251_813_3pUTR_ENSG00000135090_ENST00000392533|human|control|control (ssRNA)
# RNA: GGGAGUUCUACAGUCCGACGAUCUAAUGGCAGCGAUCUCCACUUCCUGAAGUGGUUUUUUAUGAACUUCUAAUAAAUCAGAGGCUGAGCCUAAGCAAUAUUCCAUCACCAACCAAGCAGUGUGUUCUUUCAAGUAACAGCCUUCAACAGAGGAUUGAGCAUCA
# B4: chr12:39763582:39763583:-_ENSG00000139116_ENST00000544797|hu_mus|hu_hu_hu_mus_False|88_88 (ssRNA)
# RNA: GGGAGUUCUACAGUCCGACGAUCCUCUAGGAACUGGGCAUUCACUUUAAAAUCUGGAGGGGGCAGCCCGUUUUUAAUCGCUGAGGUCUUUUUCUCAUCAAUACUCUUGAACAGGUGUCUAACAGCACGAGAGAUGAUGCCCUGCAACAGAGGAUUGAGCAUCA
# B5: chr1:8037743:8037744:+_ENSG00000116288_ENST00000493373|perfect_dup|motif|central (ssRNA)
# RNA: GGGAGUUCUACAGUCCGACGAUCUCCAUUCAUCAUUUUGUCUUUAGCAAGAGGGUGUGUUGUAACUUUACUUCCAAAACCGGUUUCAUGAGCCAACAGAGCAGUAGGACCUGCACAGAUGGCGGCUAUCAGGCCCUUCCGGUUCAACAGAGGAUUGAGCAUCA
# B6: chr4:148551591:148551592:-_ENSMUSG00000063077_ENSMUST00000060537|mus_hu|mus_mus_mus_hu_False|1_68 (ssRNA)
# RNA: GGGAGUUCUACAGUCCGACGAUCACCUGACAAAAUUAAAUAUCCCUGUAAAUUAGACAAUAAGCAGCAGGUAACAAAGUCUUUGCUUUGGAAUAUGUGCCAGGAAAAGUCAUCUUGUUUUUAGAUCUCAAGAGACACAACCAUCAACAGAGGAUUGAGCAUCA
# B7: chr11:85008163:85008164:-_ENSMUSG00000018481_ENSMUST00000018625|mus_hu|motif|central (ssRNA)
# RNA: GGGAGUUCUACAGUCCGACGAUCAGCAUUUUCAUACUGAUUCAUGUCAUAAUUAUAUAAAGAAGCCAGAUGUCCCACUGAAAGGGCGGCUUCAUAAUCUUCUUGACCAAGAAGUUGUUCUUUAAUCUGAAUUGCUUUGAUGUGCAACAGAGGAUUGAGCAUCA
# B8: chr3:10015032:10015033:+_ENSMUSG00000027533_ENSMUST00000029046|mus_mus|mus_mus_mus_hu_True|38_38 (ssRNA)
# RNA: GGGAGUUCUACAGUCCGACGAUCGUUUUUACCAUCACAAGUGAUGAUACAAUCUGGCUUGGCCAUUGCGCCCAUUUUUCGCAAAGCUAUUCCCACUCCUAGCUCUUUCAUGUAUUCAUCAAAGCCUUUGCUGUCCACCAGGCGCAACAGAGGAUUGAGCAUCA
# B9: chr13:48919227:48919228:+_ENSG00000139687_ENST00000267163|hu_mus|FALSE|FALSE (ssRNA)
# RNA: GGGAGUUCUACAGUCCGACGAUCCUUGGUACUGGUAUCGAUUUCUUUUAAUAAGUCAAAGAAUUUAUAGACACUGGUUUCUAUGCUUUUCUGUAGCUCAGUAAAAGUGAAUGGCAUCUCAUCUAGAUCAACUGCUGCGAUAAACAACAGAGGAUUGAGCAUCA
# B10: 9583757_9588413_1475_CDS_ENSG00000119203_ENST00000238112|human|control|control (ssRNA)
# RNA: GGGAGUUCUACAGUCCGACGAUCUAUGUGAACUUCAUCGUUAUCUUCAUAUUCUCGAAUCAGUGCUGCUUUCAAUCUGGCCAUUUCAUUCUGUUCUCCAUGGACUAAAAUCACAUGAGGCGGUUUCAAAGCACGAAUAAAUUCCAACAGAGGAUUGAGCAUCA
# B11: chr1:244855233:244855234:+_ENSG00000121644_ENST00000302550|hu_mus|hu_hu_hu_mus_True|78_108 (ssRNA)
# RNA: GGGAGUUCUACAGUCCGACGAUCCAUUAAAUGAUAAGCGUUGCCCUUAUACUCUUUUCCCAGUUCUUCUACAAUUUUCUCUAUAUCAUCUUCUAGAAAGUCCGUACUUCCUAGAACAACAGCUUCUUUAAAUUUAAAUGUUUCCAACAGAGGAUUGAGCAUCA
# B12: chr4:115894766:115894767:+_ENSMUSG00000028698_ENSMUST00000030464|mus_hu|mus_mus_mus_hu_True|8_88 (ssRNA)
# RNA: GGGAGUUCUACAGUCCGACGAUCUUCCACACGGAAAUGUACUUCGGGUUUCCAACGGGCCAGUACCAGUCCGGCCAAACUACCCGAACAGGGUCCUCCCCCUCUCUCCUACAGAACACAACAAAAUAACAAAAUACUUUCAAGCAACAGAGGAUUGAGCAUCA
# B13: chr1:39494447:39494448:+_ENSG00000168653_ENST00000372967|hu_mus|hu_hu_hu_mus_False|38_38 (ssRNA)
# RNA: GGGAGUUCUACAGUCCGACGAUCGCACCGAGCGGCGUUCUUAUAGGGCUGUUCUGCGCUUAGGAACAUAAAGUGCCGGUCCAGGCUGAUGCCCAGCCUUUUCUGGAUGUCAAGGAAAGGCAUGGCUCUGCAGUGCCCUUGUCACAACAGAGGAUUGAGCAUCA
# B14: chr4:17845017:17845018:+_ENSG00000109805_ENST00000514176|hu_mus|hu_hu_hu_mus_False|28_108 (ssRNA)
# RNA: GGGAGUUCUACAGUCCGACGAUCGCUUCCUAACUUAGUAUCUUCAUUAAGGAACUCUGCAAGGUUAAGUUUACUUUUCUGUAGCGCAGCUGUUUUGGCUCGUCUGGUAGUCUCAUCCUUCAUUUCUGAUGGUGGUUCAUGAUCCAACAGAGGAUUGAGCAUCA
# B15: chr1:65854986:65854987:+_ENSG00000116675_ENST00000371069|hu_hu|FALSE|FALSE (ssRNA)
# RNA: GGGAGUUCUACAGUCCGACGAUCGAGGAUGCUGGGAUUGACAUCUUUUGUGCAGUAAUGUUCCCAUGGUGGAGUUAAGUCUAUUACUUUGUCAUGGGGCUGUAGUUCUACAUCCAGUGUCACCUGAAAUAGCUGAGGAUAUUUCAACAGAGGAUUGAGCAUCA
# B16: chr1:185089287:185089288:-_ENSG00000121486_ENST00000367506|hu_mus|FALSE|FALSE (ssRNA)
# RNA: GGGAGUUCUACAGUCCGACGAUCUGGCGGCAUCUGGCCUUCUGAUUGUGCUCCAGUGUAAGUGGGGGUGCUGUACUUUAGCAAGAUGGAUUUAAACUGCAUCAGAGGGGCAUCGGUACGGAUGCCCAUUGGGUCAAAGUGAGUCAACAGAGGAUUGAGCAUCA
# B17: 161402982_161417958_180_3pUTR_ENSMUSG00000061778_ENSMUST00000112247|mouse|control|control (ssRNA)
# RNA: GGGAGUUCUACAGUCCGACGAUCUAUGUCUCCAGUAUAAGUAACUUUCAACCCAGUUAUCAUCUUGCUGAAGCCUUUCAACAUCACGUGAAUCAUAUUUUUCUGACUUUUCUGUCACAUACUCAGCUUCGAAUCUCCGCCGGGCAACAGAGGAUUGAGCAUCA
# B18: chr2:158593201:158593202:-_ENSG00000115170_ENST00000434821|hu_hu|motif|central (ssRNA)
# RNA: GGGAGUUCUACAGUCCGACGAUCUGAAAUCUUUGCUUCUAAAUCAGUAAUAUAUUCGGUGGUGUCACGUGGGUAAUGGCGGAAUACGUUCUGCAUAUGAACUGAAAAAAAGUUACAGUCUACACACAUACAAAUGUGAAGCACCAACAGAGGAUUGAGCAUCA
# B19: chr12:105536279:105536280:+_ENSG00000136051_ENST00000332180|hu_mus|hu_hu_hu_mus_True|8_48 (ssRNA)
# RNA: GGGAGUUCUACAGUCCGACGAUCAGCACUGAACAUGUAAUGUAAUCUGGCUGCAUCGACAGCAUUUUCAUAUACAUCAUCUAAAUAAAUUGGGAAGACAGCGCGAUGCCAGUAUAAAAAACAGCAGUCACAUUGUGCUUGGACCAACAGAGGAUUGAGCAUCA
# B20: chr14:90871172:90871173:+_ENSG00000198668_ENST00000553542|hu_mus|FALSE|FALSE (ssRNA)
# RNA: GGGAGUUCUACAGUCCGACGAUCACCAAUACAUGCAGACUUUGUGUGUGGACAGAGGGGCUUCUGACAUUCAGCUUCGCUAGAUACAAACAGAAUGAAGAAAUGAACUUUUUCUUUUUUUUUCUUUUUUUUGUAAGAGGUAAGCAACAGAGGAUUGAGCAUCA
# B21: chr16:94690093:94690094:+_ENSMUSG00000040785_ENSMUST00000117648|mus_hu|mus_mus_mus_hu_True|8_38 (ssRNA)
# RNA: GGGAGUUCUACAGUCCGACGAUCGGGCUGGGAUGACGGACACACAGCCUCGAUUCCAGGGGGAAAAAGUCUUAGUCGAUACUAAUUAAAAAGUGUUUUUAUAAUUGGAAAAUCAGAUUACAUCUAUUUGAAUCAUAAAGCAAACAACAGAGGAUUGAGCAUCA
# B22: chr14:66974463:66974464:+_ENSMUSG00000022044_ENSMUST00000074523|mus_hu|mus_mus_mus_hu_False|48_68 (ssRNA)
# RNA: GGGAGUUCUACAGUCCGACGAUCUUGUAGGACGACUUAUUCAGGGGAUCGGCCAGGAAGCAGGAGCAGAACAGAGACACCAGCGGGAGUUCCUUCAUCUUCUCUUUGUAGGCAGCAAGGGUCAUGUUUCUGGGAUCUGGUGGCCAACAGAGGAUUGAGCAUCA
# Biological target: T1, UNK ZnF1-3
# Assay: nsRBNS (natural sequence RNA bind-n-seq); RBNS binding buffer (assumed for nsRBNS): 25 mM Tris pH 7.5, 150 mM KCl, 3 mM MgCl2, 0.01% Triton X-100, 500 ug/ml BSA, 20 U/ml SUPERase-In, 4 C; UNK is unkempt and MSI1 is Musashi-1; names of the RNAs are library labels; protein concentration not given here; high values mean tight binding
row,Binder,binding signal
1,B1,2.36 enrichment R
2,B2,1.46 enrichment R
3,B3,1.34 enrichment R
4,B4,1.84 enrichment R
5,B5,0.883 enrichment R
6,B6,1.37 enrichment R
7,B7,1.27 enrichment R
8,B8,0.703 enrichment R
9,B9,0.953 enrichment R
10,B10,1.22 enrichment R
11,B11,0.965 enrichment R
12,B12,1.25 enrichment R
13,B13,0.84 enrichment R
14,B14,0.5 enrichment R
15,B15,1.29 enrichment R
16,B16,1.44 enrichment R
17,B17,0.563 enrichment R
18,B18,1.23 enrichment R
19,B19,2.98 enrichment R
20,B20,1.23 enrichment R
21,B21,1.24 enrichment R
22,B22,2.91 enrichment R
